Test results reported in article PMC8536713.
Results are given in words; binding and its absence hold for the method and conditions named. In cells and extracts the contact can be indirect. Some binding calls cover weakened binding; strength is not graded here. Tags and fused reporters may be left off the sequences shown.

Tests used:
Assay in all cases: pull-down; pre-60S particles isolated via affinity-tagged assembly factors from yeast strains expressing Dbp7-GFP; Dbp7-GFP detected in the particles (Supplementary Fig. 1c)
[1] = target: T1, affinity-tagged Nip7 (S. cerevisiae) (UniProt Q08962)
T1 sequence: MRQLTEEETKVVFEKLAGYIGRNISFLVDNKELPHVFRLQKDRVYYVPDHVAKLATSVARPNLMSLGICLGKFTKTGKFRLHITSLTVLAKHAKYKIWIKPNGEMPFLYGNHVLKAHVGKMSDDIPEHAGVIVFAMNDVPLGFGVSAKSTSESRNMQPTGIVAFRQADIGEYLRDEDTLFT

[2] = target: T2, affinity-tagged Arx1 (S. cerevisiae) (UniProt Q03862)
T2 sequence: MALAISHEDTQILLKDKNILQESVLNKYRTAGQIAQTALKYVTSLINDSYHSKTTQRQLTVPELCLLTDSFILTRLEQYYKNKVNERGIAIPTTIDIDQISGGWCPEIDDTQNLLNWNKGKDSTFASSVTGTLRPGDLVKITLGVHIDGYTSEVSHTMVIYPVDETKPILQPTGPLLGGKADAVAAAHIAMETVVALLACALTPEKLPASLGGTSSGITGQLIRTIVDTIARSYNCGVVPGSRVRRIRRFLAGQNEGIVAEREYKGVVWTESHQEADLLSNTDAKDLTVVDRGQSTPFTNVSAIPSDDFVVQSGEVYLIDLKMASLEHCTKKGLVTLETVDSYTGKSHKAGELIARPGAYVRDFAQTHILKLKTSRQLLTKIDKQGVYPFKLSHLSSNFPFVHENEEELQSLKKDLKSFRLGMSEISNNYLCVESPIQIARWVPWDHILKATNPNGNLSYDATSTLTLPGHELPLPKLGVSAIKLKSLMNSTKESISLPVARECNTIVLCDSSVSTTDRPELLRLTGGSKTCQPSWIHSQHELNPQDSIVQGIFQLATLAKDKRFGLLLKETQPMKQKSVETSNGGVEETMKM

Nop2-TAP (S. cerevisiae) = target: T3, Nop2-TAP (S. cerevisiae) (UniProt P40991)
T3 sequence: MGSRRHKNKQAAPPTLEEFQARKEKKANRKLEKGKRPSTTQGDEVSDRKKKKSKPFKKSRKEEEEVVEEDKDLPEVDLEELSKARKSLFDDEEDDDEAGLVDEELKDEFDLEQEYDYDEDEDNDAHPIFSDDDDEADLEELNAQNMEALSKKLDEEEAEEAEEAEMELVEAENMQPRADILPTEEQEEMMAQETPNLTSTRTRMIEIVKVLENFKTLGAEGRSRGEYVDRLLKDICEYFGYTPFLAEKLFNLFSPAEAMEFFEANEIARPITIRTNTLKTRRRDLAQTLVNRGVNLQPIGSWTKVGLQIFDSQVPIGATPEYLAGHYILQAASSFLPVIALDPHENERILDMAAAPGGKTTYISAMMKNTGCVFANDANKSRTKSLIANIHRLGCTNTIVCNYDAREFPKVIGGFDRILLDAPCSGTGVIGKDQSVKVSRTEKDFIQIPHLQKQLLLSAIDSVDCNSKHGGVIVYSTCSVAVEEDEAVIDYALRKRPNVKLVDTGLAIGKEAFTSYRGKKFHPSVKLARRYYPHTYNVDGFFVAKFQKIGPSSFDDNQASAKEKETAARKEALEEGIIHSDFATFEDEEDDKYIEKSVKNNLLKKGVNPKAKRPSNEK

[3] = target: T4, affinity-tagged Rpf2 (S. cerevisiae) (UniProt P36160)
T4 sequence: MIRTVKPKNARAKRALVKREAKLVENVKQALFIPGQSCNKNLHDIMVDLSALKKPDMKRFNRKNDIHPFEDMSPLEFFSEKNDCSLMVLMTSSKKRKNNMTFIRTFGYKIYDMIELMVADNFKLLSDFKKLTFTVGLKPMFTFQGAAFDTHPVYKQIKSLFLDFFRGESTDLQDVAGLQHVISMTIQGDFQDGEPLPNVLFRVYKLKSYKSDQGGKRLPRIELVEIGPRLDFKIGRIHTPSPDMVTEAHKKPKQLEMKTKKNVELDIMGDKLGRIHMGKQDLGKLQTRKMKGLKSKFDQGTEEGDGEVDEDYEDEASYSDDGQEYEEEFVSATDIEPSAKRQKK

binding [1]: binds
binding [2]: no binding
binding (Nop2-TAP (S. cerevisiae)): binds
binding [3]: binds
B1: Dbp7-GFP (enzyme, UniProt P36120 1-742)
chain: MSDEDSMLLNFTTNEDTAGSSYKQAAKVTGGRWKDRRRMKMKLEGKTVSRKRKANTTGDEGIIPGRGENSIKKLHKESSYSSEEQEKYKGRNAHNTQGRTLPADSQFVSSLFTSNREITTAVNTNIHDENVAINPSNAPLKGDQFASLGVSSLLVSHLEQKMRIKKPTSIQKQAIPQIIGNAGKNDFFIHAQTGSGKTLSYLLPIISTILNMDTHVDRTSGAFALVIAPTRELASQIYHVCSTLVSCCHYLVPCLLIGGERKKSEKARLRKGCNFIIGTPGRVLDHLQNTKVIKEQLSQSLRYIVLDEGDKLMELGFDETISEIIKIVHDIPINSEKFPKLPHKLVHMLCSATLTDGVNRLRNVALKDYKLISNGTKKDSDIVTVAPDQLLQRITIVPPKLRLVTLAATLNNITKDFIASGQQSKTLRTIVFVSCSDSVEFHYDAFSGSDGHHKNLTGDSVRLLTKGNTMFPCFSDSRDPDVVIYKLHGSLSQQMRTSTLQHFARDNEATKGKHLIMFCTDVASRGLDLPHVGSVIELDPPFAVEDHLHRVGRTARAGEKGESLLFLLPGEEEKYMDYIQPYHPMGWELLKFDKEILMPAFKDVNVNRNDKFIRKDEKSSKNKDVGDKEYEWDTNATTWHLNIERRVVGDSAFKNLAVKGFISHVRAYATHISQEKKFFNVKFLHLGHLAKSFGLRERPKAMGLQSSKDGNSEKKPTKENSKNKMFRMARMAEKQIASEFNY
